Molecular target: T1, catalytic domain of caspase-9 (residues 140-416) (human, UniProt P55211 140-416)
T1 construct: also called purified caspase-9
T1 sequence (looked up): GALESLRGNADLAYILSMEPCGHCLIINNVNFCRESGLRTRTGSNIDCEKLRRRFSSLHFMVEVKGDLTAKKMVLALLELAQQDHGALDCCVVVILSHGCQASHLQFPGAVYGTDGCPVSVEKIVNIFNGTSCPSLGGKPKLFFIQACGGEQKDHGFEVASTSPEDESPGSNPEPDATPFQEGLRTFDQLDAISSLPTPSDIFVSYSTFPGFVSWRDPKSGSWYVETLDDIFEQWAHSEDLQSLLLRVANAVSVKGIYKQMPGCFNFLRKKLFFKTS
Assay: surface acoustic wave (SAW); caspase-9 immobilised, NleF injected; sam5 BLUE and GREEN instruments; model derived from 1:1 binding; BSA and Protein A references subtracted
Conditions: both partners purified

B1: purified recombinant NleF (natural protein)
chain: not shown
notes: source: recombinant, purified
- Kd: ~39 nM
